Measurements reported in patent publication US20220267438A1 (Janssen / Centocor, published 2022).

T1: human BCMA (B cell maturation antigen, TNFRSF17) on cells (human, UniProt Q02223 1-184)
T1 construct: whole, on cells; Target on H929 or MM.1R GPRC5D knockout cells, K562 cells expressing human BCMA, HEK293 cells of the cell microarray, and BCMA-only lymphoma lines; also called CD269; surface BCMA
T1 sequence (looked up): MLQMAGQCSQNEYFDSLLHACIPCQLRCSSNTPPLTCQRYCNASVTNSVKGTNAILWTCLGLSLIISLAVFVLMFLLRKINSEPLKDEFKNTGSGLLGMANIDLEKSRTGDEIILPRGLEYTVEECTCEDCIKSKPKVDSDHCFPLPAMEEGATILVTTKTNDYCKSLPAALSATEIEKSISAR

B1: BGCB491 (other)
heavy: QVQLQQSGPRLVRPSQTLSLTCAISGDSVFNNNAAWSWIRQSPSRGLEWLGRTYYRSKWLYDYAVSVKSRITVNPDTSRNQFTLQLNSVTPEDTALYYCARGYSSSFDYWGQGTLVTVSSASTKGPSVFPLAPSSKSTSGGTAALGCLVKDYFPEPVTVSWNSGALTSGVHTFPAVLQSSGLYSLSSVVTVPSSSLGTQTYICNVNHKPSNTKVDKKVEPKSCDKTHTCPPCPAPEAAGGPSVFLFPPKPKDTLMISRTPEVTCVVVSVSHEDPEVKFNWYVDGVEVHNAKTKPREEQYNSTYRVVSVLTVLHQDWLNGKEYKCKVSNKALPAPIEKTISKAKGQPREPQVYTLPPSREEMTKNQVSLSCAVKGFYPSDIAVEWESNGQPENNYKTTPPVLDSDGSFFLVSKLTVDKSRWQQGNVFSCSVMHEALHNRFTQKSLSLSPGKGGGGSGGGGSGGGGSGGGGS[letters of about 100 residues not shown]QFPHTFGQGTKLEIKGGSEGKSSGSGSESKSTGGSQVTLKESGPVLVKPTETLTLTCTVSGFSLTNIRMSVSWIRQPPGKALEWLAHIFSNDEKSYSTSLKSRLTISRDTSKSQVVLTLTNVDPVDTATYYCARMRLPYGMDVWGQGTTVTVSS
light: QSALTQPASVSGSPGQSITISCTGTSSNIGTYKFVSWYQQHPDKAPKVLLYEVSKRPSGVSSRFSGSKSGNTASLTISGLQAEDQADYHCVSYAGSGTLLFGGGTKLTVLGQPKAAPSVTLFPPSSEELQANKATLVCLISDFYPGAVTVAWKADSSPVKAGVETTTPSKQSNNKYAASSYLSLTPEQWKSHRSYSCQVTHEGSTVEKTVAPTECS
chain: EIVLTQSPGTLSLSPGERATLSCRASQSISSSFLTWYQQKPGQAPRLLIYGASSRATGIPDRFSGGGSGTDFTLTISRLEPEDFAVYYCQHYGSSPMYTFGQGTKLEIKGGSEGKSSGSGSESKSTGGS[letters of about 100 residues not shown]DEGYSSGHYYGMDVWGQGTTVTVSSEPKSSDKTHTCPPCPAPEAAGGPSVFLFPPKPKDTLMISRTPEVTCVVVSVSHEDPEVKFNWYVDGVEVHNAKTKPREEQYNSTYRVVSVLTVLHQDWLNGKEYKCKVSNKALPAPIEKTISKAKGQPREPQVYTLPPSREEMTKNQVSLWCLVKGFYPSDIAVEWESNGQPENNYKTTPPVLDSDGSFFLYSKLTVDKSRWQQGNVFSCSVMHEALHNHYTQKSLSLSPGK
notes: Trispecific IgG1 antibody (L234A, L235A, D265S); Heavy chain 1 = anti-CD3 (CD3B376) Fab heavy chain, hole and RF mutations, with C-terminal anti-GPRC5D scFv (GC5B680); Heavy chain 2 = anti-BCMA scFv (BCMB519) - Fc knob; also called JNJ-79635322; BCMA×GPRC5D×CD3 trispecific mAb
B2: BGCB463 (other)
heavy: QVQLQQSGPRLVRPSQTLSLTCAISGDSVFNNNAAWSWIRQSPSRGLEWLGRTYYRSKWLYDYAVSVKSRITVNPDTSRNQFTLQLNSVTPEDTALYYCARGYSSSFDYWGQGTLVTVSSASTKGPSVFPLAPSSKSTSGGTAALGCLVKDYFPEPVTVSWNSGALTSGVHTFPAVLQSSGLYSLSSVVTVPSSSLGTQTYICNVNHKPSNTKVDKKVEPKSCDKTHTCPPCPAPEAAGGPSVFLFPPKPKDTLMISRTPEVTCVVVSVSHEDPEVKFNWYVDGVEVHNAKTKPREEQYNSTYRVVSVLTVLHQDWLNGKEYKCKVSNKALPAPIEKTISKAKGQPREPQVYTLPPSREEMTKNQVSLSCAVKGFYPSDIAVEWESNGQPENNYKTTPPVLDSDGSFFLVSKLTVDKSRWQQGNVFSCSVMHEALHNRFTQKSLSLSPGK
light: B1 light
chain: [letters of about 100 residues not shown]QFPHTFGQGTKLEIKGGSEGKSSGSGSESKSTGGSQVTLKESGPVLVKPTETLTLTCTVSGFSLTNIRMSVSWIRQPPGKALEWLAHIFSNDEKSYSTSLKSRLTISRDTSKSQVVLTLTNVDPVDTATYYCARMRLPYGMDVWGQGTTVTVSSEPKSSDKTHTCPPCPAPEAAGGPSVFLFPPKPKDTLMISRTPEVTCVVVSVSHEDPEVKFNWYVDGVEVHNAKTKPREEQYNSTYRVVSVLTVLHQDWLNGKEYKCKVSNKALPAPIEKTISKAKGQPREPQVYTLPPSREEMTKNQVSLWCLVKGFYPSDIAVEWESNGQPENNYKTTPPVLDSDGSFFLYSKLTVDKSRWQQGNVFSCSVMHEALHNHYTQKSLSLSPGKGGSEGKSSGSGSESKSTGGSEIVLTQSPGTLSLSPGERATLSCRASQSISSSFLTWYQQKPGQAPRLLIYGASSRATGIPDRFSGGGSGTDFTLTISRLEPEDFAVYYCQHYGSSPMYTFGQGTKLEIKGGSEGKSSGSGSESKSTGGS[letters of about 100 residues not shown]DEGYSSGHYYGMDVWGQGTTVTVSS
notes: Trispecific IgG1 antibody (L234A, L235A, D265S); Heavy chain 1 = anti-CD3 (CD3B376) Fab heavy chain with hole and RF mutations; also called BGCB463.003; BGCB463.004

How the values were obtained:
[1] = biological target: T2, CD3W200, recombinant CD3εγ heterodimer construct (human, UniProt P07766 22-118; P09693 23-103); test: SPR, CD3 binding, release sample
T2 construct: also called human CD3 (SPR antigen for BGCB491)

[2] = biological target: T2, CD3W200, recombinant CD3εγ heterodimer …; test: SPR, CD3 binding after oxidation with metal
[3] = biological target: T3, human GPRC5D (G-protein coupled receptor family C group 5 member D) on cells (human, UniProt Q9NZD1 1-345); test: flow cytometry, H929-BCMA-KO cells (GPRC5D arm), 1 h 37C; Run 2
T3 construct: Target on H929 or MM.1R BCMA knockout cells, K562 cells expressing human GPRC5D and HEK293 cells of the cell microarray
T3 sequence (Q9NZD1 whole entry): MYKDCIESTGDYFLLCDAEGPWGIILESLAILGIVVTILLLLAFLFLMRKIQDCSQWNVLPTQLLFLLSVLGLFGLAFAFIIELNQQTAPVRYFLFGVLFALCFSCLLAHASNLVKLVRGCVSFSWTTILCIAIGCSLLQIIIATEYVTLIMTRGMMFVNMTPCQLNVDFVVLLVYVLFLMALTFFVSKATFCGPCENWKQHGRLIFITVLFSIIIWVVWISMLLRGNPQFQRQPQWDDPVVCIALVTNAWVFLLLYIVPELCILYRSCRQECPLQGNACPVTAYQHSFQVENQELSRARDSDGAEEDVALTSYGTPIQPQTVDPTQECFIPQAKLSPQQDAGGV
Method: (§1) Flow cytometry was used to evaluate the BCMA and GPRC5D arm binding of BGCB491 in vitro. BGCB491 and isotype control were tested on a panel of H929-WT, H929-BCMA-KO, H929-GPRC5D-KO, and H929-BCMA/GPRC5D-KO cell lines after 1-hour 37° C. incubation.

[4] = biological target: T1, human BCMA (B cell maturation antigen, …); test: flow cytometry, H929-GPRC5D-KO cells (BCMA arm), 1 h 37C; Run 2
Method: as §1

[5] = biological target: T1, human BCMA (B cell maturation antigen, …); test: flow cytometry, H929-GPRC5D-KO cells (BCMA arm), 1 h 37C; Run 4
Method: as §1

[6] = biological target: T1, human BCMA (B cell maturation antigen, …); test: flow cytometry, MM.1R GPRC5D KO cells, 1 h 37C; Run 3
Method: First, FACS-based binding for GPRC5D and BCMA binding arms of the trispecific molecule was determined by measuring the effective concentration (EC) range from a dose-response curve using a 4-parameter fit at 37° C. for 1 hr. This was assessed using an H929 suite of cells (WT, GPRC5D-KO, BCMA-KO, and GPRC5D/BCMA KO), and a similar MM.1R suite. Cell based EC₅₀ is approximately 13 nM for WT H929 (FIGS. 2A-2D, Table 7) and 2.4 nM for WT MM.1R (FIGS. 3A-3D, Table 8). A clear avidity affect is observed as EC₅₀ and Bmax are both reduced in GPRC5D-KO and BCMA-KO lines which test monovalent binding of target binding arms (Table 7). Next, cell-based EC₅₀ was determined for the CD3-binding Fab arm using purified Pan T cells from three random donors. […] Next, dose responsive binding was assessed at 4° C. to remove any potential biological effects. As shown in FIGS. 5A-5C, binding is stronger (50-100 nM) at 4° C., compared to 37° C., which may indicate internalization. Additionally, two expression lots of BGCB463 (BGCB463.003 from transient transfection and BGCB463.004 from a stable transfection pool), were directly compared with binding to H929, MM.1R, and Pan T cells and no differences were noted (FIGS. 6A-6C).

[7] = biological target: T4, human CD3 (CD3ε of the TCR/CD3 complex) on primary human pan T cells (human, UniProt P07766); test: flow cytometry, human pan T cells, Donor 1, 1 h 37C; Run 3
T4 construct: whole, on cells; On T cells CD3ε stands in the whole TCR/CD3 complex
Method: For binding of BGCB463 to human and cynomolgus Pan T cells, three human donors (Hemacare) were selected, quickly thawed, resuspended, and aliquoted into a 96-well plate at 1×10⁶ cells/mL. Cells were then washed, Fc blocked if necessary (Innovex), and stained with viability dye (Invitrogen). BGCB463 and its corresponding isotype (B23B251) were diluted in complete media to an initial concentration of 2 μM and 1:3 serial dilutions in duplicate were performed for a dose-response curve. The cells were incubated with molecules at 4° C. or 37° C. for 1 hour. When necessary, incubation with 90% human serum (Sigma) was also performed as described above.
First, FACS-based binding for GPRC5D and BCMA binding arms of the trispecific molecule was determined by measuring the effective concentration (EC) range from a dose-response curve using a 4-parameter fit at 37° C. for 1 hr. This was assessed using an H929 suite of cells (WT, GPRC5D-KO, BCMA-KO, and GPRC5D/BCMA KO), and a similar MM.1R suite. Cell based EC₅₀ is approximately 13 nM for WT H929 (FIGS. 2A-2D, Table 7) and 2.4 nM for WT MM.1R (FIGS. 3A-3D, Table 8). […] Next, cell-based EC₅₀ was determined for the CD3-binding Fab arm using purified Pan T cells from three random donors. […] Next, dose responsive binding was assessed at 4° C. to remove any potential biological effects. […]

[8] = biological target: T3, human GPRC5D (G-protein coupled …); test: flow cytometry, MM.1R BCMA KO cells, 1 h 37C; average of runs
[9] = biological target: T3, human GPRC5D (G-protein coupled …); test: flow cytometry on K562 cells expressing human GPRC5D, 1 hr 37 C, Run 2
Method: (§2) FIGS. 9A-E. BGCB463 (circles) or negative control B23B251 (triangles) were all incubated with K562 cells expressing human GPRC5D (FIG. 9A), human BCMA (FIG. 9B), cynomolgus GPRC5D (FIG. 9C) or cynomolgus BCMA (FIG. 9D) for 1 hr at 37° C. at a starting concentration of 2 μM. After secondary detection with AF647-anti-human IgG, the MFI signal was analyzed to generate an EC₅₀ and EC₉₀ (FIG. 9E). Data are representative of two independent experiments.
(§3) The GPRC5D (i.e., GC5B680) and BCMA binding arms were assessed for cross-reactivity to cynomolgus monkey as part of the BGCB463 molecule, which uses the identical binding arms as BGCB491. Cross reactivity to cynomolgus monkeys was profiled for both target-binding scFv arms using FACS-based cell binding at 37° C. for 1 hour with K562 stably expressing human or cynomolgus monkey GPRC5D or BCMA. The cell-based EC₅₀ value for the GC5B680 scFv arm was approximately 30 nM against human GPRC5D-expressing cells and about 10-fold weaker (approximately 400 nM) on cynomolgus monkey GPRC5D-expressing cells.

[10] = biological target: T5, cynomolgus GPRC5D on K562 cells (cynomolgus monkey); test: flow cytometry on K562 cells expressing cynomolgus GPRC5D, 1 hr 37 C, average of Runs 1 and 2 (EC50 AVE)
T5 construct: whole, on cells; also called cyno GPRC5D
Method: as §2, §3

Binder | Kd [1] [nM] | Kd [2] [nM] | EC50 [3] [nM] | EC50 [4] [nM] | EC50 [5] [nM] | EC50 [6] [nM] | EC50 [7] [nM] | EC50 [8] [nM] | EC50 [9] [nM] | EC50 [10] [nM]
B1 | 25.1 | 23.3 | 66 | 54 | 50 |  |  |  |  | 
B2 |  |  |  |  |  | 142 | 293 | 19.7 | 49.7 | 372
